The source gives many values for each of these; only a part stands here.
System: cataract formation in galactocemic rats
Test: in vivo dose response by intubation (per oral) in galactocemic rats, cataract (vacuole) formation
Design: species or system Charles River CD (Sprague-Dawley derived) male rats
Procedure: B. In vivo dose response studies were conducted to test the in vivo activity of the following compounds by intubation (per oral) in galactocemic rats on a 30% galactose diet previously described:
Stock suspensions of the test compounds and all dilutions of the compound were formulated with 0.03% by weight Tween 80.
Healthy, Charles River CD (outbred albino, Sprague-Dawley derived) male rats, aged 20-30 days, without observable ocular defects and ranging in weight from 35-45 grams, were acclimated to experimental conditions (in quarantine) for two days prior to beginning the study.
Rats were individually assigned to one of twenty-three groups according to a random number schedule. Two rats, belonging to the same drug-diet treatment group, were housed per cage. Treatment and control groups consisted of six (6) rats each with no replacement in the event of death, and were designated as follows:
Lenses of all eyes were examined with a hand-held ophthalmoscope in the early stages of cataract development and a penlight for the stages, snowflake-like, snowflake, and nuclear cataract. Lens grading occurred every day for the first ten study days, and then every other day until study Day 14.
The relative potency determination was made at 7 drug levels over half log dose intervals. The response (percent cataracts formed and/or the time to cataract formation) was plotted against mg/kg and/or moles/kg.
The study was directed to the suppression and/or elimination of the initial stages of cataract development characterized by vacuoles or snowflake-likeopacities only. It was assumed therefore that suppression and/or elimination of vacuoles or lens opacification by the test drugs affects the transport, absorption and/or metabolism of galactose in such a manner as to prevent subsequent osmotic disturbances normally leading to tissue degeneration and advanced cataract. Advanced cataract defined as stages 2-4 of the Sipple classification was assumed to be of secondary importance to the etiology of cataract inhibition.
In the event where cataract stage other than vacuole formed, such as snowflake-like opacities, this cataract was counted similarly as vacuole in percent cataract formation.
This study yielded this expected effect in the control groups.
All animals were fed Purina Laboratory Chow and water, ad libitum, for the two day acclimation period. All drugs were dosed orally by intubation using an animal feeding needle (Popper and Sons), 18 or 20 gauge, attached to a 1 or 3 ml syringe. Once the dosing time schedule was established, the schedule was followed throughout the study to compensate for any diurnal variation.
The animals were kept on a twelve hour day/night cycle. The temperature and humidity were determined each day at the scheduled dosing time of 1:00 p.m.
The animals were weighed every other day and adjustments to dosage amounts to compensate for weight gain were made each day prior to the dose time. All food was routinely withheld from all animal groups for four hours (9:00 a.m.) prior to the drug dose and restored two hours (3:00 p.m.) post-dose. Otherwise sufficient amounts of chow or diet mixture were maintained in the food hopper to allow the animals to eat ad libitum. There were two days of drug dosage with the animals remaining on Purina Laboratory Chow (Days 1 and 2). The 30% galactose diet mixture was introduced to the animals two hours post-dose on Day 3 which constituted Day 1 of the study.
All eyes were examined with a hand-held ophthalmoscope and/or penlight at the times designated in the Experimental Design section.
It has been found in previous studies that dilation of the eye with a mydriactic (i.e. Mydriacyl) is not necessary for accurate grading, due to the semi-transparent nature of the rat iris. In the early stages (i.e., grades -, ±, and +) the lens was observed by reflecting the ophthalmoscope beam off the retina back through the lens and iris. Using this technique, vacuoles appear as dark, almost opaque patches. […]

| Compound | Percent of Rat Eyes With at Least Vacuoles Formed (0.040 mg/kg p.o., Day 6) | Percent of Rat Eyes With at Least Vacuoles Formed (0.040 mg/kg p.o., Day 7) | Percent of Rat Eyes With at Least Vacuoles Formed (0.040 mg/kg p.o., Day 8) | Percent of Rat Eyes With at Least Vacuoles Formed (0.040 mg/kg p.o., Day 9) | Percent of Rat Eyes With at Least Vacuoles Formed (0.040 mg/kg p.o., Day 10) | Percent of Rat Eyes With at Least Vacuoles Formed (0.040 mg/kg p.o., Day 12) | Percent of Rat Eyes With at Least Vacuoles Formed (0.040 mg/kg p.o., Day 14) | Percent of Rat Eyes With at Least Vacuoles Formed (0.126 mg/kg p.o., Day 6) | Percent of Rat Eyes With at Least Vacuoles Formed (0.126 mg/kg p.o., Day 7) | Percent of Rat Eyes With at Least Vacuoles Formed (0.126 mg/kg p.o., Day 8) | Percent of Rat Eyes With at Least Vacuoles Formed (0.126 mg/kg p.o., Day 9) | Percent of Rat Eyes With at Least Vacuoles Formed (0.126 mg/kg p.o., Day 10) | Percent of Rat Eyes With at Least Vacuoles Formed (0.126 mg/kg p.o., Day 12) | Percent of Rat Eyes With at Least Vacuoles Formed (0.126 mg/kg p.o., Day 14) | Percent of Rat Eyes With at Least Vacuoles Formed (0.4 mg/kg p.o., Day 6) | Percent of Rat Eyes With at Least Vacuoles Formed (0.4 mg/kg p.o., Day 7) | Percent of Rat Eyes With at Least Vacuoles Formed (0.4 mg/kg p.o., Day 8) | Percent of Rat Eyes With at Least Vacuoles Formed (0.4 mg/kg p.o., Day 9) | Percent of Rat Eyes With at Least Vacuoles Formed (0.4 mg/kg p.o., Day 10) | Percent of Rat Eyes With at Least Vacuoles Formed (0.4 mg/kg p.o., Day 12) | also measured |
| --- | --- | --- | --- | --- | --- | --- | --- | --- | --- | --- | --- | --- | --- | --- | --- | --- | --- | --- | --- | --- | --- |
| O=C1NC(=O)C2(N1)c1ccccc1-c1ccc(F)cc12 (racemic) [Compound L, dl-Spiro(2-fluorofluoren-9,4'-imidazolidine)-2',5'-dione] | 33.3% | 50.0% | 83.3% | 83.3% | 100.0% | 100.0% | 100.0% | 33.3% | 33.3% | 50.0% | 50.0% | 50.0% | 83.3% | 83.3% | 0.0% | 8.3% | 41.7% | 41.7% | 66.7% | 83.3% | Percent of Rat Eyes With at Least Vacuoles Formed (0.4 mg/kg p.o., Day 14): 100.0%; Percent of Rat Eyes With at Least Vacuoles Formed (1.26 mg/kg p.o., Day 7): 0.0%; Percent of Rat Eyes With at Least Vacuoles Formed (1.26 mg/kg p.o., Day 8): 0.0%; Percent of Rat Eyes With at Least Vacuoles Formed (1.26 mg/kg p.o., Day 9): 0.0%; Percent of Rat Eyes With at Least Vacuoles Formed (1.26 mg/kg p.o., Day 10): 0.0%; Percent of Rat Eyes With at Least Vacuoles Formed (1.26 mg/kg p.o., Day 12): 0.0%; Percent of Rat Eyes With at Least Vacuoles Formed (1.26 mg/kg p.o., Day 14): 0.0% |
| O=C1NC(=O)C2(CCOc3ccc(F)cc32)N1 (racemic) [Sarges Racemic, dl-spiro-(6-fluorochroman-4,4'-imidazolidine)-2',5'-dione, reference compound] | 0.0% | 8.3% | 50.0% | 66.7% | 100.0% | 100.0% | 100.0% | 33.3% | 33.3% | 41.7% | 75.0% | 100.0% | 100.0% | 100.0% | 33.3% | 33.3% | 50.0% | 58.3% | 83.3% | 83.3% | Percent of Rat Eyes With at Least Vacuoles Formed (0.4 mg/kg p.o., Day 14): 100.0%; Percent of Rat Eyes With at Least Vacuoles Formed (1.26 mg/kg p.o., Day 7): 0.0%; Percent of Rat Eyes With at Least Vacuoles Formed (1.26 mg/kg p.o., Day 8): 8.3%; Percent of Rat Eyes With at Least Vacuoles Formed (1.26 mg/kg p.o., Day 9): 16.7%; Percent of Rat Eyes With at Least Vacuoles Formed (1.26 mg/kg p.o., Day 10): 83.3%; Percent of Rat Eyes With at Least Vacuoles Formed (1.26 mg/kg p.o., Day 12): 100.0%; Percent of Rat Eyes With at Least Vacuoles Formed (1.26 mg/kg p.o., Day 14): 100.0% |
| O=C1NC(=O)C2(N1)c1cc(F)ccc1-c1ccc(F)cc12 [M, Spiro-[2,7-difluorofluoren-9,4'-imidazolidine]-2',5'-dione] | 50.0% | 66.7% | 83.3% | 83.3% | 91.7% | 100.0% | 100.0% | 8.3% | 25.0% | 66.7% | 66.7% | 66.7% | 66.7% | 75.0% | 0.0% | 0.0% | 0.0% | 0.0% | 0.0% | 0.0% | Percent of Rat Eyes With at Least Vacuoles Formed (0.4 mg/kg p.o., Day 14): 0.0%; Percent of Rat Eyes With at Least Vacuoles Formed (1.26 mg/kg p.o., Day 7): 0.0%; Percent of Rat Eyes With at Least Vacuoles Formed (1.26 mg/kg p.o., Day 8): 0.0%; Percent of Rat Eyes With at Least Vacuoles Formed (1.26 mg/kg p.o., Day 9): 0.0%; Percent of Rat Eyes With at Least Vacuoles Formed (1.26 mg/kg p.o., Day 10): 0.0%; Percent of Rat Eyes With at Least Vacuoles Formed (1.26 mg/kg p.o., Day 12): 0.0%; Percent of Rat Eyes With at Least Vacuoles Formed (1.26 mg/kg p.o., Day 14): 0.0% |

— patent publication US4540700A, “Treatment of diabetic complications with certain spiro-imidazolidine-diones” (Alcon Laboratories, Inc., priority 1984, dated 1985)
